Assay results: PubChem BioAssay AID624296 (National Center for Advancing Translational Sciences (NCATS), 2012)
Several values for one entry are separate records, joined by “and”; a condition that tells them apart may be missing. Equal values may be shown once. Out of some 350,000 compounds screened, about 9,900 (2.8%) were called active. The inconclusive results got no clear call from the source; some entries with a clear call stand among them for comparison. The call rests on the fitted dose curve; in most records, active means well fitted activation curve with a large enough effect; inconclusive means small, poorly fitted or top-dose-only effect; inactive means no such curve, though single readings can be large or run the other way. Potencies of inconclusive entries are doubtful fits and often do not repeat.

assay: A quantitative high throughput screen for small molecules that induce DNA re-replication in MCF 10a normal breast cells.; further: nearly all actives have a fitted effect of over 50% in size; on activity, positive = re-replication: % of control where 0% means no effect; details: MCF 10A DNA re-replication, Hoechst nuclear intensity, 48 h; activity, positive = re-replication: at 46.1 µM (top of the series)
Potency means the concentration at half of the fitted maximal effect; tags describe the fitted curve by direction and shape.

SMILES	Potency	activity, positive = re-replication
COc1ccc(CNC(=O)/C(C#N)=C/c2cccc(OC)c2OC)cc1	inconclusive: 23.1 µM [activator, single point]	
Cn1cnnc1Sc1ccc(C(F)(F)F)cc1[N+](=O)[O-]	inconclusive: 3.66 µM [activator, single point]	
CC(=O)Nc1c(Cl)cc(Cl)c2c1Cc1cc(Cl)ccc1-2		inactive: 4.03%
Cc1nc2ccccc2n1Cc1ccc(Br)cc1		inactive: -1.6%
N#Cc1c(-c2ccccc2)c(-c2ccccc2)nn(CC(=O)NNC(=O)Nc2ccc(Cl)c(Cl)c2)c1=O	inconclusive: 7.31 µM [activator, single point]	
N#Cc1c(N)n(CCNC(=O)c2ccccc2)c2nc3ccccc3nc12	inconclusive: 20.6 µM [activator, single point]	
CCCNC(=O)c1ccc(N2CCC3(CC2)CC(c2cccc(Br)c2)=NO3)c(NC(=O)c2ccc(Br)cc2)c1		inactive: 6.24%
Cc1cccc(-n2c(=S)[nH]c3sc4c(c3c2=O)CCc2ccccc2-4)c1		inactive: -20.7%
COc1cccc(Cn2cc(/C=N/NC(=O)c3cc(O)cc(O)c3)c3ccccc32)c1	inconclusive: 16.4 µM [activator, partial curve, poor fit]	
Cc1cc([N+](=O)[O-])c(NCCCCCCO)c([N+](=O)[O-])c1	inconclusive: 18.4 µM [activator, partial curve, poor fit]	
O=C(O)c1[nH]c2ccccc2c1C(c1ccccc1)c1c(C(=O)O)[nH]c2ccccc12	inconclusive: 2.31 µM [activator, partial curve, poor fit]	
Cc1ccc(S(=O)(=O)/N=C2/C=C(C3C(=O)CC(C)(C)CC3=O)C(=O)c3ccccc32)cc1	inconclusive: 23.1 µM [activator, single point]	
CC(=NNC(=S)N1CCCCCC1)c1cccc2cccnc12	active: 6.51 µM	
CC(C)CCNC(=O)c1c[nH]c2ccc(S(=O)(=O)N3CCC4(CC3)OCCO4)cc2c1=O		inconclusive: 99.5% [activator]
Cc1ccc(F)cc1NC(=O)CCNC(=O)c1ccc([N+](=O)[O-])cc1		inactive: -6.23%
COC(=O)C(C(=O)OC)N1C(=O)CCC1=O	inconclusive: 2.06 µM [activator, partial curve, poor fit]	
COCCn1c(SCC(=O)Nc2ccccc2OC)nnc1-c1ccco1		inactive: -2.39%
COc1cccc(CNCC(O)COc2ccc(C(=O)c3ccccc3)cc2)c1 (centres undefined)	inconclusive: 29.1 µM [activator, partial curve, poor fit]	
COc1ccccc1CN1CCNC(=O)C1CC(=O)NCCCn1cccn1 (centres undefined)	inconclusive: 2.06 µM [activator, single point]	
O=C(C1CC(=O)N(c2ccc3c(c2)OCCO3)C1)N1CCN(c2cccc(C(F)(F)F)c2)CC1 (centres undefined)	inconclusive: 18.4 µM [activator, single point]	
CCC(C)N1C(=O)S/C(=C/c2ccc(Sc3nc4ccccc4[nH]3)o2)C1=O (centres undefined)	active: 8.2 µM	
CC1C(=O)N2CCCc3cc(NC(=O)C4CC4)cc1c32 (centres undefined)		inactive: 4.32%
CCN(CC)C1CCN(c2nc3nonc3nc2NCCOC)C1 (centres undefined)	inconclusive: 32.6 µM [activator, partial curve, poor fit]	

SMILES	Potency	activity, positive = re-replication
Cc1ccc(C)c(OCCCCn2ccnc2)c1		inactive: 1.74%
O=C(c1ccccc1)N1CCN(C2C3CC4CC(C3)CC2C4)CC1 (centres undefined)	inconclusive: 29.1 µM [activator, single point]	
CC(=O)Nc1ccc(S(=O)(=O)N2CCN(c3cccc(C)c3C)CC2)cc1	inconclusive: 29.1 µM [activator, single point]	
CC(/C=C/c1ccc2c(c1)OCO2)=N\NC(=O)COc1ccccc1C	inconclusive: 18.4 µM [activator, partial curve, poor fit]	
O=C(O)C1CCN(c2nc(-c3ccccc3)c3cc(Br)ccc3n2)CC1	active: 23.1 µM	
CCC(C)NS(=O)(=O)c1ccc(OCC(=O)NCc2cccnc2)cc1 (centres undefined)		inactive: 1.04%
Cc1cc(N=Cc2c(O)ccc3cc(Br)ccc23)no1	active: 13 µM	
O=C(CSc1nnc(-c2cccnc2)o1)c1cc2ccccc2oc1=O	inconclusive: 20.6 µM [activator, single point]	
CCOc1ccc(S(=O)(=O)Nc2cccc(C(=O)NCC3(N4CCCCC4)CCCCC3)c2)cc1	inconclusive: 29.1 µM [activator, single point]	
COC(=O)CN1C(=S)N(c2ccc(Cl)cc2)C(=O)C1CC(=O)Nc1ccc(Cl)cc1 (centres undefined)	inconclusive: 23.1 µM [activator, partial curve, poor fit]	
Cc1ccc(NC2CCCN(C(=O)c3cccc(-c4ncc[nH]4)c3)C2)cc1C (centres undefined)		inactive: -0.205%
CN(c1ccccc1)S(=O)(=O)c1ccc(NC(=O)c2cccs2)cc1	inconclusive: 29.1 µM [activator, single point]	
CC1CCCCC1NC(=O)COC(=O)c1ccc2c(c1Cl)C(=O)c1ccccc1C2=O (centres undefined)	inconclusive: 23.1 µM [activator, single point]	
COc1ccc(/C=N/Nc2ncnc3sc(C)c(C)c23)cc1	inconclusive: 29.1 µM [activator, single point]	
CCOC(=O)c1c(CSC(=N)N)n(-c2ccccc2)c2cc(Br)c(OC(C)=O)cc12	inconclusive: 18.4 µM [activator, single point]	
O=C(Nc1ccc2oc(=O)ccc2c1)c1ccc(-c2cccc([N+](=O)[O-])c2)o1	inconclusive: 1.46 µM [activator, partial curve, poor fit]	
CCOC(=O)C1CCN(C(=O)Nc2ccc3oc(C)nc3c2)CC1		inactive: 1.19%
C/C(=N\NC(N)=S)c1cc(-c2ccccc2)c(-c2ccccc2)s1	inconclusive: 18.4 µM [activator, single point]	
COc1ccc(/C=C/C(=O)c2ccc(OC)cc2O)cc1	inconclusive: 29.1 µM [activator, single point]	
COc1ccc(N(CC(=O)N2CCOCC2)S(C)(=O)=O)c(OC)c1		inactive: 9.7%
O=C(OCCCOc1ccc(F)cc1)c1ccc(O)cc1O	inconclusive: 32.6 µM [activator, partial curve, poor fit]	
COc1ccccc1/C=C/c1nc(S(=O)(=O)c2ccccc2)c(N(C)C)o1	active: 20.6 µM	
COCCn1c(=S)[nH]c2cc(C(=O)N3CCN(c4cccc(Cl)c4)CC3)ccc2c1=O	inconclusive: 4.61 µM [activator, partial curve, poor fit]	

SMILES	Potency	activity, positive = re-replication
O=C(/C=C/c1ccccn1)c1cc(Br)ccc1O	inconclusive: 16.4 µM [activator, single point]	
C=CCc1cccc(C2Nc3ccccc3C(=O)N2O)c1O (centres undefined)		inactive: 26.4%
Cc1nc(S/C(=C/c2ccc(-c3ccc(Cl)cc3)o2)C(=O)O)n[nH]1	inconclusive: 9.2 µM [activator, partial curve, poor fit]	
COc1ccc(OC)c(/C=N/N(CCC#N)C2=NS(=O)(=O)c3ccccc32)c1	inconclusive: 3.66 µM [activator, single point]	
O=C(c1cc([N+](=O)[O-])ccc1N1CCCCC1)N1CCc2ccccc21	active: 3.66 µM	
C/C(=N\NC(=O)c1ccc(O)cc1)c1ccc(NC(=O)Cc2ccccc2)cc1		inactive: 0.947%
O=C1NN(c2ccc(F)c(Cl)c2)C(=O)/C1=C\c1cccc(OC(=O)c2cccs2)c1	active: 14.6 µM	
CCc1nonc1NC(=O)c1oc2cc(Br)ccc2c1C		inactive: 3.95%
Cc1ccc(NC(=O)COC(=O)c2cccc(N3C(=O)c4ccccc4C3=O)c2)cc1	inconclusive: 29.1 µM [activator, partial curve, poor fit]	
COc1ccc(CC(NC(C)=O)C(=O)NC2CCN(C(=O)C3CCCCC3)CC2)cc1OC (centres undefined)		inactive: 0.104%
CCN(CC)CCSc1nnc2c3cc(F)ccc3n(Cc3ccccc3)c2n1	inconclusive: 9.2 µM [activator, partial curve, poor fit]	
CCOc1ccccc1-n1nnnc1SC(C)C(=O)OC (centres undefined)		inactive: -3.06%
Cn1c(=O)[nH]c(=O)c2c1nc(SCCO)n2CCCc1ccccc1	inconclusive: 0.103 µM [activator, partial curve, poor fit]	
c1ccc(-c2csc3ncnc(NCCN4CCOCC4)c23)cc1	inconclusive: 10.3 µM [activator, partial curve]	
CCn1c(/C=C/c2ccc(F)cc2)nc2ccccc2c1=O		inactive: 1.86%
COc1ccc(-n2cc(CNCc3cnc4ccccn34)c(-c3cccc(F)c3)n2)cc1	inconclusive: 29.1 µM [activator, single point]	
O=C(NC12CC3CC(CC(C3)C1)C2)c1ccc(-c2ccc(Br)cc2)o1	active: 20.6 µM	
S=C(Nc1cccc2ccccc12)NC1CCCCC1	inconclusive: 32.6 µM [activator, single point]	
O=[N+]([O-])c1cc(/C=N/NC(=S)Nc2ccccc2Cl)ccc1Cl	inconclusive: 23.1 µM [activator, single point]	
Cc1[nH]nc2c1C(CC(C)C)C(C#N)=C(N)O2 (centres undefined)	inconclusive: 18.4 µM [activator, partial curve, poor fit]	
Cc1noc(C)c1COc1cccc(C(=O)OC(C)C(=O)Nc2ccc3c(c2)OCO3)c1 (centres undefined)	active: 14.6 µM	
COc1ccc(C(CC(=O)N2CCOCC2)c2c(OC)cc(OC)c3c(-c4ccccc4)cc(=O)oc23)cc1 (centres undefined)	inconclusive: 29.1 µM [activator, single point]	
CCN(CC)CC#CCOC(=O)C(O)(c1ccccc1)C1CCCCC1 (centres undefined)	inconclusive: 5.17 µM [activator, full curve, poor fit] and inconclusive: 25.9 µM [activator, single point]	
